Test results: PubChem BioAssay (NCI)
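A five-concentration, 48-hour dose response in 96-well plates underlies each endpoint, interpolated linearly between surrounding concentrations. Here, GI50 denotes the concentration required for 50% inhibition of growth.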 A number of entries come with more than one value. The other results are left out here. There may be further records. For some assays here: A record mostly stands for its own series of concentrations, not given here; some values may only mark the edge of a range. For some assays here: Results that share an entry repeat one measurement across runs, samples, wells, individuals or studies. Brackets tell where a record comes from. The letters are not those of the source and start again with each entry.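 At the TGI there is no net growth.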

Key:
Experiment in all cases: NCI tumour cell line growth inhibition, 48 h
SW-620 colon = test system: SW-620 colon
RPMI-8226 leukemia = test system: RPMI-8226 leukemia
SN12K1 renal = test system: SN12K1 renal
HT29 colon = test system: HT29 colon
MOLT-4 leukemia = test system: MOLT-4 leukemia
K-562 leukemia = test system: K-562 leukemia
HCT-116 colon = test system: HCT-116 colon
MCF7 breast = test system: MCF7 breast
P388 leukemia = test system: P388 leukemia
NCI-H226 lung = test system: NCI-H226 lung
OVCAR-8 ovarian = test system: OVCAR-8 ovarian
SK-OV-3 ovarian = test system: SK-OV-3 ovarian
XF 498 CNS = test system: XF 498 CNS
KM12 colon = test system: KM12 colon
SNB-78 CNS = test system: SNB-78 CNS
SNB-75 CNS = test system: SNB-75 CNS
SF-295 CNS = test system: SF-295 CNS
HCT-15 colon = test system: HCT-15 colon
MALME-3M melanoma = test system: MALME-3M melanoma
SK-MEL-5 melanoma = test system: SK-MEL-5 melanoma
SNB-19 CNS = test system: SNB-19 CNS
UACC-62 melanoma = test system: UACC-62 melanoma
MDA-MB-231 breast = test system: MDA-MB-231 breast
M14 melanoma = test system: M14 melanoma
OVCAR-3 ovarian = test system: OVCAR-3 ovarian
LOX IMVI melanoma = test system: LOX IMVI melanoma
A549 NSCLC = test system: A549 NSCLC
HL-60(TB) leukemia = test system: HL-60(TB) leukemia
NCI/ADR-RES ovarian = test system: NCI/ADR-RES ovarian
HOP-62 NSCLC = test system: HOP-62 NSCLC
PC-3 prostate = test system: PC-3 prostate
786-0 renal = test system: 786-0 renal
HOP-18 NSCLC = test system: HOP-18 NSCLC
SR leukemia = test system: SR leukemia
CCRF-CEM leukemia = test system: CCRF-CEM leukemia
IGROV1 ovarian = test system: IGROV1 ovarian

In the case of `[Cl][Pt+2][Cl].[NH-]C1CCCCC1[NH-]` (centres undefined), the GI50 (SW-620 colon) is reported as 2.75 µM [sample A, mean of 2 tests] and 689 nM [sample B, mean of 2 tests] and 103 nM [sample C, mean of 2 tests], the GI50 (RPMI-8226 leukemia) is reported as 2.51 µM [sample A, mean of 2 tests] and 702 nM [sample B, mean of 2 tests] and 71.3 nM [sample C, mean of 2 tests] and the GI50 (SN12K1 renal) is reported as > 53.3 µM [sample A, mean of 2 tests] and 18.2 µM [sample B, mean of 2 tests] and 1.76 µM [sample C, mean of 2 tests]. The GI50 (HT29 colon) was 7.01 µM [sample A, mean of 2 tests] and 975 nM [sample B, mean of 2 tests] and 265 nM [sample C, mean of 2 tests], the GI50 (MOLT-4 leukemia) was 3.15 µM [sample A, mean of 2 tests] and 708 nM [sample B, mean of 2 tests] and 138 nM [sample C, mean of 2 tests] and the GI50 (K-562 leukemia) was 15.4 µM [sample A, 1 test] and 3.85 µM [sample B, 1 test] and 419 nM [sample C, 1 test]. For the same compound, the GI50 (HCT-116 colon) was 10.4 µM [sample A, mean of 2 tests] and 2.03 µM [sample B, mean of 2 tests] and 238 nM [sample C, mean of 2 tests], the GI50 (MCF7 breast) was 3.21 µM [sample A, mean of 2 tests] and 3.43 µM [sample B, 1 test] and 317 nM [sample C, mean of 2 tests] and the GI50 (P388 leukemia) was 635 nM [sample A, mean of 2 tests] and 158 nM [sample B, mean of 2 tests] and 42.9 nM [sample C, mean of 2 tests]. The GI50 (NCI-H226 lung) was 9.45 µM [sample A, 1 test] and 1.77 µM [sample B, 1 test] and 95.4 nM [sample C, 1 test], the TGI (NCI-H226 lung) was 50.8 µM [sample A, 1 test] and 35.1 µM [sample B, 1 test] and 3.68 µM [sample C, 1 test] and the GI50 (OVCAR-8 ovarian) was 11.3 µM [sample A, mean of 2 tests] and 2.02 µM [sample B, mean of 2 tests] and 328 nM [sample C, mean of 2 tests].
With `COc1cc(/C=C\c2ccc(C)cc2)cc(OC)c1OC` the TGI (SK-OV-3 ovarian) was 257 nM and > 100 µM, the TGI (XF 498 CNS) was 55.8 nM and 27.5 µM and the TGI (KM12 colon) was 787 nM and > 59.2 µM. For the same compound, the TGI (SNB-78 CNS) was 0.291 nM and > 100 µM, the TGI (SNB-75 CNS) was 82.4 µM [1 test] and 310 nM [mean of 2 tests] and the TGI (SF-295 CNS) was 81 µM [1 test] and 49 nM [mean of 2 tests]. For the same compound, the TGI (HCT-15 colon) was 417 nM and > 57.2 µM, the TGI (HT29 colon) was 135 nM and 6.82 µM and the TGI (MALME-3M melanoma) was 455 nM and 55.2 µM. For the same compound, the TGI (SK-MEL-5 melanoma) was 697 nM and 12.2 µM, the TGI (HCT-116 colon) was 253 nM and > 100 µM and the TGI (SNB-19 CNS) was 385 nM and > 100 µM. For the same compound, the TGI (UACC-62 melanoma) was 259 nM and > 85.6 µM, the TGI (MDA-MB-231 breast) was 246 nM and > 100 µM and the TGI (M14 melanoma) was 72.9 nM and > 60.7 µM. For the same compound, the TGI (OVCAR-8 ovarian) was 176 nM and 11.6 µM.
For `COc1cc(/C=C2\CCC/C(=C\c3cc(OC)c(O)c(OC)c3)C2=O)cc(OC)c1O`, the TGI (OVCAR-3 ovarian) was 2.59 µM and > 100 µM, the TGI (LOX IMVI melanoma) was 75 µM and 3.78 µM and the TGI (SF-295 CNS) was 5.38 µM and > 100 µM. The TGI (A549 NSCLC) was 5.67 µM and > 100 µM, the TGI (HCT-116 colon) was 2.88 µM and > 100 µM and the TGI (HL-60(TB) leukemia) was 75 µM and 4.75 µM. The TGI (NCI/ADR-RES ovarian) was 75 µM and 5.87 µM, the TGI (HOP-62 NSCLC) was 4.34 µM and > 100 µM and the TGI (PC-3 prostate) was 75 µM and 7.14 µM. For the same compound, the TGI (786-0 renal) was 3.91 µM and > 100 µM.
In the case of `CC[C@@]1(O)C[C@H](OC2CC(N(C)C)C(OC3CC(O)C(OC4CCC(=O)C(C)O4)C(C)O3)C(C)O2)c2c(cc3c(c2O)C(=O)c2c(O)cccc2C3=O)[C@H]1C(=O)OC` (some centres undefined), the TGI (SNB-75 CNS) is reported as 9.68 nM [mean of 4 tests] and 256 nM [mean of 6 tests] and 61.4 nM [mean of 7 tests], the GI50 (HOP-18 NSCLC) is reported as 132 nM [mean of 2 tests] and 7.67 nM [mean of 3 tests] and the GI50 (SR leukemia) is reported as 22.5 nM [1 test] and 3.12 nM [mean of 3 tests] and 1.6 nM [mean of 6 tests]. The TGI (SR leukemia) was 225 µM [1 test] and 8.34 nM [mean of 3 tests] and 109 nM [mean of 6 tests].
For `CCCC(=O)Nc1cc(C(=O)N2C[C@@H]3C[C@]34C2=CC(=O)c2[nH]cc(C)c24)n(COC)c1`, the TGI (CCRF-CEM leukemia) was 2.5 µM and 26.8 µM and the TGI (IGROV1 ovarian) was 32.7 µM and 3.24 µM.
